In the supplement of paper PMC12217912:
The list shows a part of the results. Sequences were assembled here from the parent chain. Values near 0.05 are background.

B1: TEV protease; numbered along this chain (parent)
chain: MGESLFKGPRDYNPISSSICHLTNESDGHTTSLYGIGFGPFIITNKHLFRRNNGTLVVQSLHGVFKVKDTTTLQQHLVDGRDMIIIRMPKDFPPFPQKLKFREPQREERICLVTTNFQTKSMSSMVSDTSCTFPSGDGIFWKHWIQTKDGQCGSPLVSTRDGFIVGIHSASNFTNTNNYFTSVPKNFMELLTNQEAQQWVSGWRLNADSVLWGGHKVFMVKPEEPFQPVKEATQL

Variants of: B1
Test: raw area under fraction-flipped curve 0-4 h after induction (AUC4h, not background-subtracted), DNA-recorder readout of cleavage of the substrate (dimensionless); higher = more cleavage of the substrate by the protease variant
Conditions: temperature: 34 °C; time window: 0-4 h after rhamnose induction
Protocol: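 In vivo DNA recorder in E. coli TOP10(DE3) ΔrhaA at 34 °C. Each TEVp single-site mutant (parent TEVp 0) is paired with a single-site variant of the 7-mer TEVs (canonical ENLYFQ|S). The substrate sits between flexible linkers in a Bxb1-sfGFP-TEVs-SsrA fusion, so cleavage stabilises Bxb1 and speeds flipping of a recombination array, read by NGS. The value is the raw area under the fraction-flipped curve over 0-4 h after rhamnose induction (AUC4h), with ≥20 reads per time point. It is not background-subtracted; inactive controls average about 0.047.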
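Further: Bxb1 expression induced with 0.2% (w/v) L-rhamnose at OD600 near 0.5, cultures sampled hourly, flipped fraction per protease–substrate barcode pair counted by paired-end Illumina sequencing.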

Variant | area with substrate ENLYAQS | area with substrate ENLYEQS | area with substrate ENLYGQS | area with substrate ENLYHQS | area with substrate ENLYIQS | area with substrate ENLYKQS | area with substrate ENLYLQS | area with substrate ENLYMQS | area with substrate ENLYNQS | area with substrate ENLYPQS | area with substrate ENLYQQS | area with substrate ENLYSQS | area with substrate ENLYTQS | area with substrate ENLYDQS | area with substrate ENLYVQS | area with substrate ENLYWQS | area with substrate ENLYRQS | area with substrate ENLYCQS | area with substrate ENLYYQS
S127R | 0.0565 | 0.0801 | 0.0461 | 0.0785 | 0.111 | 0.0922 | 0.0761 | 0.138 | 0.0762 | 0.0729 | 0.0743 | 0.0742 | 0.0751 |  |  |  |  |  | 
S130A | 0.0787 | 0.0687 | 0.02 | 0.0664 | 0.121 |  |  | 0.0454 | 0.0641 |  | 0.0595 | 0.073 |  | 0.0751 | 0.132 | 0.0619 |  |  | 
S130T | 0.0738 | 0.0686 |  |  |  | 0.0404 |  |  |  |  | 0.0654 |  |  |  |  |  | 0.0653 |  | 
S130F | 0.0656 | 0.049 | 0.0658 | 0.065 | 0.108 | 0.0691 |  | 0.0699 |  |  | 0.0704 | 0.0599 |  |  |  | 0.0647 | 0.0595 |  | 
T115I | 0.0714 | 0.0772 | 0.077 |  | 0.118 |  |  | 0.078 | 0.0882 | 0.0622 | 0.0597 | 0.076 |  | 0.0511 | 0.15 |  | 0.0684 | 0.062 | 
T115H | 0.0893 | 0.0665 |  | 0.0613 | 0.121 | 0.0623 | 0.0984 | 0.0711 | 0.0634 |  | 0.0673 | 0.0732 |  |  | 0.177 | 0.079 |  | 0.0714 | 
T159W | 0.0648 |  |  | 0.0513 | 0.122 |  |  |  |  |  |  |  |  |  |  |  |  |  | 
I167P | 0.0927 | 0.0655 |  | 0.0671 | 0.0626 | 0.053 |  |  |  | 0.0505 |  | 0.0392 |  | 0.0537 | 0.062 | 0.0567 | 0.054 |  | 0.0431
I167L | 0.0752 | 0.0632 | 0.0632 | 0.0661 | 0.106 | 0.0564 | 0.0795 | 0.0684 | 0.0662 |  | 0.0547 | 0.0812 |  | 0.0549 |  | 0.0492 | 0.061 | 0.0875 | 0.0616
D137M | 0.0782 | 0.0705 | 0.0703 | 0.0681 | 0.103 | 0.0527 |  | 0.0744 | 0.0735 | 0.075 | 0.0607 |  | 0.0582 | 0.0741 |  | 0.0788 | 0.0615 |  | 0.0449
D137G | 0.0748 | 0.0542 |  | 0.0592 | 0.102 | 0.0566 |  |  | 0.069 | 0.0655 | 0.0651 | 0.0707 |  | 0.0571 |  | 0.0814 | 0.0665 | 0.0938 | 
P96D | 0.0709 | 0.0696 |  | 0.101 | 0.133 | 0.0602 | 0.084 | 0.115 |  | 0.0473 |  | 0.0638 |  |  | 0.137 |  | 0.0797 |  | 
Q105V | 0.0689 |  | 0.0635 |  | 0.133 |  |  | 0.0908 | 0.0952 | 0.0649 |  | 0.0895 |  |  | 0.156 |  | 0.0591 |  | 0.0688
E107D | 0.0776 | 0.0636 | 0.0587 | 0.0689 | 0.0824 | 0.0713 |  | 0.0882 | 0.0758 | 0.0751 |  | 0.0779 |  | 0.0684 | 0.0717 | 0.0757 | 0.0768 | 0.0848 | 
F101M | 0.108 | 0.0587 |  | 0.0603 | 0.108 | 0.0766 |  | 0.0742 | 0.06 |  |  | 0.0549 |  | 0.057 | 0.11 |  | 0.0529 | 0.0788 | 0.0468
